The list shows a part of the results. The list includes weakly bound sequences.

This assay addresses T1, MBP-FoxP3dN (UniProt Q99JB6).
T1 sequence: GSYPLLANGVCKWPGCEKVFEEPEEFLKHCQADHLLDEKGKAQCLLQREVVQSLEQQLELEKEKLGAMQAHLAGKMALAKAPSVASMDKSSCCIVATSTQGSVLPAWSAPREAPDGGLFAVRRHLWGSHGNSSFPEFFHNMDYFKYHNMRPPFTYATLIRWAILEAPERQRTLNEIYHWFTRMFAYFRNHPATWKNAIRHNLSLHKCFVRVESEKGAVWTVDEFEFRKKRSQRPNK
Kind of assay: PD-seq (MBP pull-down with sequencing). The following applies: 20 mM Tris-HCl pH 7.5, 100 mM NaCl, 1.5 mM MgCl2, 0.4 uM protein, 0.1 uM dsDNA library, 30 min, room temperature, amylose pull-down; high values mean tight binding; double strand, one strand shown.
On to “GATGATTGTTCTCCCAGCTGATGAATTTTTTTCATCGAGTAAACAAATTTTCCTAATCTTTCTGTTCAAGCGCCATCTAC”, for which the binding signal (RPM ratio (pull-down/input)) is 0.304.

Consider “GATGATTGTTCTCCCAGCTGATGAATTGAGAGGATCGAGTAAACAAATTTTCCTAATCTTTCTGTTCAAGCGCCATCTAC”, for which the binding signal (RPM ratio (pull-down/input)) stood at 0.236.

With “GATGATTGTTCTCCCAGCTGATGAATTCGAATAATCGAGTAAACAAATTTTCCTAATCTTTCTGTTCAAGCGCCATCTAC”, the binding signal (RPM ratio (pull-down/input)) was 0.345.

In the case of “GATGATTGTTCTCCCAGCTGATGAATTGCTATAGTCGAGTAAACAAATTTTCCTAATCTTTCTGTTCAAGCGCCATCTAC”, the binding signal (RPM ratio (pull-down/input)) is 0.638.

As to “GATGATTGTTCTCCCAGCTGATGAATTTAGTTTATCGAGTAAACAAATTTTCCTAATCTTTCTGTTCAAGCGCCATCTAC”, the binding signal (RPM ratio (pull-down/input)) was 5.05.

With “GATGATTGTTCTCCCAGCTGATGAATTTGACGCCTCGAGTAAACAAATTTTCCTAATCTTTCTGTTCAAGCGCCATCTAC”, the binding signal (RPM ratio (pull-down/input)) is 0.891.

Regarding “GATGATTGTTCTCCCAGCTGATGAATTTAGGGGGTCGAGTAAACAAATTTTCCTAATCTTTCTGTTCAAGCGCCATCTAC”, the binding signal (RPM ratio (pull-down/input)) worked out at 0.76.

On to “GATGATTGTTCTCCCAGCTGATGAATTTCGCCAATCGAGTAAACAAATTTTCCTAATCTTTCTGTTCAAGCGCCATCTAC”, for which the binding signal (RPM ratio (pull-down/input)) was 0.826.

As for “GATGATTGTTCTCCCAGCTGATGAATTACAAAGGTCGAGTAAACAAATTTTCCTAATCTTTCTGTTCAAGCGCCATCTAC”, the binding signal (RPM ratio (pull-down/input)) is 0.27.

In the case of “GATGATTGTTCTCCCAGCTGATGAATTAATTTCTTCGAGTAAACAAATTTTCCTAATCTTTCTGTTCAAGCGCCATCTAC”, the binding signal (RPM ratio (pull-down/input)) was determined as 0.745.

“GATGATTGTTCTCCCAGCTGATGAATTTTAGACGTCGAGTAAACAAATTTTCCTAATCTTTCTGTTCAAGCGCCATCTAC”: the binding signal (RPM ratio (pull-down/input)) is 0.314.

Regarding “GATGATTGTTCTCCCAGCTGATGAATTGACATCATCGAGTAAACAAATTTTCCTAATCTTTCTGTTCAAGCGCCATCTAC”, the binding signal (RPM ratio (pull-down/input)) is 0.976.

Consider “GATGATTGTTCTCCCAGCTGATGAATTCCTGTTATCGAGTAAACAAATTTTCCTAATCTTTCTGTTCAAGCGCCATCTAC”, for which the binding signal (RPM ratio (pull-down/input)) is 0.996.

With “GATGATTGTTCTCCCAGCTGATGAATTGTGCAAATCGAGTAAACAAATTTTCCTAATCTTTCTGTTCAAGCGCCATCTAC”, the binding signal (RPM ratio (pull-down/input)) was 1.11.

For “GATGATTGTTCTCCCAGCTGATGAATTCACTGGATCGAGTAAACAAATTTTCCTAATCTTTCTGTTCAAGCGCCATCTAC”, the binding signal (RPM ratio (pull-down/input)) was 0.201.

Consider “GATGATTGTTCTCCCAGCTGATGAATTCGAAGCATCGAGTAAACAAATTTTCCTAATCTTTCTGTTCAAGCGCCATCTAC”, for which the binding signal (RPM ratio (pull-down/input)) stood at 0.636.

Consider “GATGATTGTTCTCCCAGCTGATGAATTAAGGCGGTCGAGTAAACAAATTTTCCTAATCTTTCTGTTCAAGCGCCATCTAC”, for which the binding signal (RPM ratio (pull-down/input)) is 0.609.

As for “GATGATTGTTCTCCCAGCTGATGAATTTGGCGAGTCGAGTAAACAAATTTTCCTAATCTTTCTGTTCAAGCGCCATCTAC”, the binding signal (RPM ratio (pull-down/input)) turned out to be 0.696.

For “GATGATTGTTCTCCCAGCTGATGAATTTACAAGCTCGAGTAAACAAATTTTCCTAATCTTTCTGTTCAAGCGCCATCTAC”, the binding signal (RPM ratio (pull-down/input)) turned out to be 0.464.

Take “GATGATTGTTCTCCCAGCTGATGAATTAGAGATTTCGAGTAAACAAATTTTCCTAATCTTTCTGTTCAAGCGCCATCTAC”: the binding signal (RPM ratio (pull-down/input)) is 0.312.

For the sequence “GATGATTGTTCTCCCAGCTGATGAATTGTCCTACTCGAGTAAACAAATTTTCCTAATCTTTCTGTTCAAGCGCCATCTAC”, the binding signal (RPM ratio (pull-down/input)) was determined as 0.368.

As for “GATGATTGTTCTCCCAGCTGATGAATTTGTGACATCGAGTAAACAAATTTTCCTAATCTTTCTGTTCAAGCGCCATCTAC”, the binding signal (RPM ratio (pull-down/input)) stood at 1.66.

Take “GATGATTGTTCTCCCAGCTGATGAATTTTACGAGTCGAGTAAACAAATTTTCCTAATCTTTCTGTTCAAGCGCCATCTAC”: the binding signal (RPM ratio (pull-down/input)) came to 0.256.

Regarding “GATGATTGTTCTCCCAGCTGATGAATTCAGATATTCGAGTAAACAAATTTTCCTAATCTTTCTGTTCAAGCGCCATCTAC”, the binding signal (RPM ratio (pull-down/input)) came to 0.741.

For “GATGATTGTTCTCCCAGCTGATGAATTGTAGCTTTCGAGTAAACAAATTTTCCTAATCTTTCTGTTCAAGCGCCATCTAC”, the binding signal (RPM ratio (pull-down/input)) stood at 1.42.

Take “GATGATTGTTCTCCCAGCTGATGAATTATTGAGCTCGAGTAAACAAATTTTCCTAATCTTTCTGTTCAAGCGCCATCTAC”: the binding signal (RPM ratio (pull-down/input)) worked out at 0.368.

As for “GATGATTGTTCTCCCAGCTGATGAATTTGCCAATTCGAGTAAACAAATTTTCCTAATCTTTCTGTTCAAGCGCCATCTAC”, the binding signal (RPM ratio (pull-down/input)) was 0.511.

In the case of “GATGATTGTTCTCCCAGCTGATGAATTGTACTCTTCGAGTAAACAAATTTTCCTAATCTTTCTGTTCAAGCGCCATCTAC”, the binding signal (RPM ratio (pull-down/input)) stood at 0.51.

For “GATGATTGTTCTCCCAGCTGATGAATTTTGCGTATCGAGTAAACAAATTTTCCTAATCTTTCTGTTCAAGCGCCATCTAC”, the binding signal (RPM ratio (pull-down/input)) was 3.74.

For “GATGATTGTTCTCCCAGCTGATGAATTCTTGCATTCGAGTAAACAAATTTTCCTAATCTTTCTGTTCAAGCGCCATCTAC”, the binding signal (RPM ratio (pull-down/input)) stood at 6.02.

For “GATGATTGTTCTCCCAGCTGATGAATTTTCTAATTCGAGTAAACAAATTTTCCTAATCTTTCTGTTCAAGCGCCATCTAC”, the binding signal (RPM ratio (pull-down/input)) turned out to be 0.263.
